Assay results: PubChem BioAssay (NCI)
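Results reflect a 48-hour exposure of cells in 96-well plates to compound at five concentrations. GI50 is the concentration that inhibits growth by half. Definition used: TGI = concentration required for complete inhibition of growth.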

System: NCI-H322M lung
Assay: NCI-60 cell line screen, 48 h

Row | SMILES | GI50 | TGI
1 | C#Cc1ccc(C(=O)NCc2ccc(/C=C/C(=O)c3nccn3C)cc2)cc1 | 3.78 µM | > 14.3 µM
2 | CC(C)=CCc1c2c(c(O)c3c1O[C@]14C(=C[C@@H]5C[C@H]1C(C)(C)O[C@@]4(C/C=C(/C)C(=O)O)C5=O)C3=O)C=CC(C)(C)O2 | 15.4 µM | 30.2 µM
